Source: article PMC7067772, “Digenic inheritance of mutations in EPHA2 and SLC26A4 in Pendred syndrome” (Nature Communications, 2020)
Residue numbers refer to the chain shown, from its start. Names and notes keep the numbering of the source. Where two headings read alike, the source gives them in different places. Results are given in words; binding and its absence hold for the method and conditions named. In cells and extracts the contact can be indirect. Some binding calls cover weakened binding; strength is not graded here. For some of these results: Tags and fused reporters may be left off the sequences shown. Values belong to the molecule of their own block, whether it stands above or below them.

Amino acid sequences for entries named in this document (tags omitted). A change or cut given only in a name is not applied to a line headed by its entry. Chains listed by the source or under a name are the forms on record and can include a tag or linker. Residues count along the entry.
UniProt P52799, residues 28-229: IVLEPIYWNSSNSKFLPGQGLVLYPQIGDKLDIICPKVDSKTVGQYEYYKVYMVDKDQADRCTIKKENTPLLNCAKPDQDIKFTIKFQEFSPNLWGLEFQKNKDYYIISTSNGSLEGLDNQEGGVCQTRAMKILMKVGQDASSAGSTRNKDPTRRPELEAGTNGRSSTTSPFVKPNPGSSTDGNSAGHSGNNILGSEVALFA
UniProt Q03145, residues 26-977: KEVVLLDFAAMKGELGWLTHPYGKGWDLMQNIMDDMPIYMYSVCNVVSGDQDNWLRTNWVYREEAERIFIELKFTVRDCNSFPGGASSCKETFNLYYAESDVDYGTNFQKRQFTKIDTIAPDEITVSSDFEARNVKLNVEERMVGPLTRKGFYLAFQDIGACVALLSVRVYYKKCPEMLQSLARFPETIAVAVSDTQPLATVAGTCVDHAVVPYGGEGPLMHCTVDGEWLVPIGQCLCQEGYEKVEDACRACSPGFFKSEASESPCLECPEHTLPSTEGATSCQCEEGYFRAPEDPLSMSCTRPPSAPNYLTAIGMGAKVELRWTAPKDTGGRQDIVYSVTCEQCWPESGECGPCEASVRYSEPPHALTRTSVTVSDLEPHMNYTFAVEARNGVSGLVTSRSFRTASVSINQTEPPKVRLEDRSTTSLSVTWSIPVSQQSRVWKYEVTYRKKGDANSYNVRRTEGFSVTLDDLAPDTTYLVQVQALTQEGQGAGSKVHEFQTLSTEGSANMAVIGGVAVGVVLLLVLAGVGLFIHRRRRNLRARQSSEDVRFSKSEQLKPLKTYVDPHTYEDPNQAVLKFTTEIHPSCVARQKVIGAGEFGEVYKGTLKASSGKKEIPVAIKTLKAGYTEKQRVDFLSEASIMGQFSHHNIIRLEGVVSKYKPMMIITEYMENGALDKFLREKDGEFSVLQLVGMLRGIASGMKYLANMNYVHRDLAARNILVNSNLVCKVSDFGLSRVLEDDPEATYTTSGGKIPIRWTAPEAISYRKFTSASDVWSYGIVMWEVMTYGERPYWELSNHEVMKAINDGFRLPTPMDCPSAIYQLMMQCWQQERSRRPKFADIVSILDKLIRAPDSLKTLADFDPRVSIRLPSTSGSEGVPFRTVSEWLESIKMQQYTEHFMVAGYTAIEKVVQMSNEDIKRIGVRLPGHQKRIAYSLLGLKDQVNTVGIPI
V5-EphA2 (pcDNA3.2-V5-EphA2) (P29317, residues 24-976): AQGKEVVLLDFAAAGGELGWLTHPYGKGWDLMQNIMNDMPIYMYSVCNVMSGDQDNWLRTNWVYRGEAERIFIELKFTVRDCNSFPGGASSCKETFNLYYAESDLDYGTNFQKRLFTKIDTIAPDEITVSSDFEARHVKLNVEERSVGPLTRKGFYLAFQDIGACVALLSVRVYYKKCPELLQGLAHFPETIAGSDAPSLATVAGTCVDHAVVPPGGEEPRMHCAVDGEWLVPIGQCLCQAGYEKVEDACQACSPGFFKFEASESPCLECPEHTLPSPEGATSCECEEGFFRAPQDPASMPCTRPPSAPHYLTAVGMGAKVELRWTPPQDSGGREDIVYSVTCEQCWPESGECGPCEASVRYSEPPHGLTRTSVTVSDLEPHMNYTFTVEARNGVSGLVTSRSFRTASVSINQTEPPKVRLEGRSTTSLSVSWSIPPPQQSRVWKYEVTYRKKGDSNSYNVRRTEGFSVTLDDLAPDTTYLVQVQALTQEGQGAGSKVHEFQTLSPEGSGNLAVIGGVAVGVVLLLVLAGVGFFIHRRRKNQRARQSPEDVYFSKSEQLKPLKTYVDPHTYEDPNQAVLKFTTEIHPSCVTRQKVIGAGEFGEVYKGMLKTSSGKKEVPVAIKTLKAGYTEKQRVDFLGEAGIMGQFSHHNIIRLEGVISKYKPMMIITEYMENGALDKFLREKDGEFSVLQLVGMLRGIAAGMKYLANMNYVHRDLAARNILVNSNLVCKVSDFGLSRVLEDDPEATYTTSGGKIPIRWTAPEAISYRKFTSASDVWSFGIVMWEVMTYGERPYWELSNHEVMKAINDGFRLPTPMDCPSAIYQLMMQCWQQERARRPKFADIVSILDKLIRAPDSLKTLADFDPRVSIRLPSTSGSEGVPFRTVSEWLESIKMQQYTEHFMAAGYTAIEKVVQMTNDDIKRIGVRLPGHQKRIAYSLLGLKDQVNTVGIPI
V5-EphA2 G355R (P29317, form named): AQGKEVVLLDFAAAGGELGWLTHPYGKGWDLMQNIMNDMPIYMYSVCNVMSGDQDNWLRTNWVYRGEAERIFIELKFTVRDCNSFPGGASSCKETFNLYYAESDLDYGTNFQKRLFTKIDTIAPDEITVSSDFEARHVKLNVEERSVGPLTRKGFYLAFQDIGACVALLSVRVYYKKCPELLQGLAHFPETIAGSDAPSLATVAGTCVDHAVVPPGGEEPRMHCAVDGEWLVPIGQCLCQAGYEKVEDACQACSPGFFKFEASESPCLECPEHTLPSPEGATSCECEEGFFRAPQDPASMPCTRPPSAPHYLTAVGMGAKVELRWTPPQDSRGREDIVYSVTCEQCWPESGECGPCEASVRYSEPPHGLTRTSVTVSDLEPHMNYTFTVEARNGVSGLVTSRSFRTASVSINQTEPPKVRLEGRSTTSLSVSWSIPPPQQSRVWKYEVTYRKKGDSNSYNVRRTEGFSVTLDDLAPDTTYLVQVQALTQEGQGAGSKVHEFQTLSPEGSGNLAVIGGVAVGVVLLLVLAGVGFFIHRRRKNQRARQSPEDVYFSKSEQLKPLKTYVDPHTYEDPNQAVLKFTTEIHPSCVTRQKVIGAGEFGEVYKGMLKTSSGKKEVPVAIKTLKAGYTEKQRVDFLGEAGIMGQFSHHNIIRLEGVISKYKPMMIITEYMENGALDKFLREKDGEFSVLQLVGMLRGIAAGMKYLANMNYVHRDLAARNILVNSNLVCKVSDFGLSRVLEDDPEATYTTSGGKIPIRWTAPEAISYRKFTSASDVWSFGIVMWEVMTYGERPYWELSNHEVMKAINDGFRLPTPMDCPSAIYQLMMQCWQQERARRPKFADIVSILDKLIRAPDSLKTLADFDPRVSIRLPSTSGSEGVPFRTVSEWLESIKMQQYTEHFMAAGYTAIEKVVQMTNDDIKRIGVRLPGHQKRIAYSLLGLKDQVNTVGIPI
V5-EphA2 T511M (P29317, form named): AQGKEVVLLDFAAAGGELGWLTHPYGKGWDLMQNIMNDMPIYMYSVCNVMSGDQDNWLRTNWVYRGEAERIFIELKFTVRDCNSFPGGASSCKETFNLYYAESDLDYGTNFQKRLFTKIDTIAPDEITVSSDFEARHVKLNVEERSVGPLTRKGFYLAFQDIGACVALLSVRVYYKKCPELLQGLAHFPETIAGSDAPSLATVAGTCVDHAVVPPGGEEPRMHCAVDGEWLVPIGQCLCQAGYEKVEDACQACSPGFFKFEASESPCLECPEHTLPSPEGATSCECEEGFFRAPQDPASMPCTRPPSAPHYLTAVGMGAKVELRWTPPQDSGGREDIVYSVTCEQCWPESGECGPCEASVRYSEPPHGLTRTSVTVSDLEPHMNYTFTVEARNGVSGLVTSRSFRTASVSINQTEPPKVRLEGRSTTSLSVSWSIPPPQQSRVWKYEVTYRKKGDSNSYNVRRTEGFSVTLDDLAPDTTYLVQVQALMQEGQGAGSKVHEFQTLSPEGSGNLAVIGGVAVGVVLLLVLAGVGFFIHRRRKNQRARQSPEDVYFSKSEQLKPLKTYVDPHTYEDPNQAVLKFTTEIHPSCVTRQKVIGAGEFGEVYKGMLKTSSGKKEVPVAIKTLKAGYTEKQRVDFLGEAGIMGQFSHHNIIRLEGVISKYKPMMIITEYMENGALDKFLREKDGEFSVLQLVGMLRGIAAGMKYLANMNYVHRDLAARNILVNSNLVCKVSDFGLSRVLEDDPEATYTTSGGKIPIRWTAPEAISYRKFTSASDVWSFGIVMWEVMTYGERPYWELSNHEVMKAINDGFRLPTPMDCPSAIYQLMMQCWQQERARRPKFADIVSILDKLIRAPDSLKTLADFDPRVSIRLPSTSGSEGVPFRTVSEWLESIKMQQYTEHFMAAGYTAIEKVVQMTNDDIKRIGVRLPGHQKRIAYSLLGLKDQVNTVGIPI
UniProt P52800, residues 29-336: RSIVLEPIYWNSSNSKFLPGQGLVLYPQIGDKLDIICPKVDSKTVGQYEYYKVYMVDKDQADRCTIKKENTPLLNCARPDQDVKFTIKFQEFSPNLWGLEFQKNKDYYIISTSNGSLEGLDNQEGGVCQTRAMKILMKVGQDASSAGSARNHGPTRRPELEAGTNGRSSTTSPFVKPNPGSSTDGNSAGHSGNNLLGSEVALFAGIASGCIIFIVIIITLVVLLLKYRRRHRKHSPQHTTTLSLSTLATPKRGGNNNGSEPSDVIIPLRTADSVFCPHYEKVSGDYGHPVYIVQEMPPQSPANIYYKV

Assays:
[1] = target: T1, myc-tagged pendrin (pCMV-Myc-pendrin) (UniProt O43511); assay: co-IP; HEK293T cells transfected with tagged EphA2 and pendrin constructs; lysis in 50 mM Tris-HCl pH 7.4, 1% Triton X-100, 150 mM NaCl, 1 mM EDTA; anti-c-Myc or anti-FLAG-M2 magnetic beads, 1 h at 4 °C; western blotting
T1 sequence: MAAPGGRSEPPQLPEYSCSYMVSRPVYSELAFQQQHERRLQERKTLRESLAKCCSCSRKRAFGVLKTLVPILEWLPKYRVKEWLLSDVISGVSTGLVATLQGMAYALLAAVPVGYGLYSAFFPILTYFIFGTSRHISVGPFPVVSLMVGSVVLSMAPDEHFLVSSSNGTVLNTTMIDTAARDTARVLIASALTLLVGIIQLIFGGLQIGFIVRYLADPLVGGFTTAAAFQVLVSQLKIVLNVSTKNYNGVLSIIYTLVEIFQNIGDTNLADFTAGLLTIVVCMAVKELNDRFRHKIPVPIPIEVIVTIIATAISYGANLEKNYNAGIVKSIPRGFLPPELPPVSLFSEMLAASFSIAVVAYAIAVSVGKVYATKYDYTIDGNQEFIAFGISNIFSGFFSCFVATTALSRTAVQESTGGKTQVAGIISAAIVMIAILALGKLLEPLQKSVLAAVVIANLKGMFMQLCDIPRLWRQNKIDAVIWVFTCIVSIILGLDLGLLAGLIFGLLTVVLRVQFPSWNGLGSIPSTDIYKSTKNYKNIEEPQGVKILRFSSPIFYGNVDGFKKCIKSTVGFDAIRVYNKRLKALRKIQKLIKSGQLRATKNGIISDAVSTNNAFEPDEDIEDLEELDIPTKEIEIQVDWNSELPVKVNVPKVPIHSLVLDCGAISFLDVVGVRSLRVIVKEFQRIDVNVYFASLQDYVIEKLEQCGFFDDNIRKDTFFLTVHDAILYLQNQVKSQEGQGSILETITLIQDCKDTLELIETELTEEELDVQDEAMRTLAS

[2] = target: soluble ephrin-B2 extracellular domain-Fc fusion protein (UniProt P52799); assay: pull-down; HEK293T cells transfected with wild type or mutated V5-EphA2 incubated with pre-clustered ephrin-A1 Fc or ephrin-B2 Fc at 37 °C, lysed (1% Triton X-100), dynabeads protein G overnight at 4 °C; western blotting with anti-V5; only the target purified
[3] = target: EphA2 (endogenous, mouse tissues) (mouse (endogenous in kidney, thyroid, inner ear)) (UniProt Q03145); assay: co-IP; mouse tissue lysates (cochlea, thyroid, kidney) in RIPA buffer; anti-EphA2 antibody with dynabeads protein G overnight at 4 °C; western blotting; EphA2 KO mice as control
[4] = target: EphA2 (endogenous, mouse tissues) (mouse (endogenous in kidney, thyroid, inner ear)) (UniProt Q03145); assay: as above; remark: listed apart in the source
[5] = target: V5-EphA2 (pcDNA3.2-V5-EphA2) (UniProt P29317); assay: co-IP; HEK293T cells transfected with tagged EphA2 and pendrin constructs; lysis in 50 mM Tris-HCl pH 7.4, 1% Triton X-100, 150 mM NaCl, 1 mM EDTA; anti-c-Myc or anti-FLAG-M2 magnetic beads, 1 h at 4 °C; western blotting

Molecule: V5-EphA2 T511M (from UniProt P29317 24-976) (receptor)
- binding [1]: binds
- binding [2]: no binding

B2: myc-pendrin S166N (protein, UniProt O43511 1-780)
chain: T1 sequence with S166N
- binding [5]: binds

B3: myc-pendrin L117F (protein, UniProt O43511 1-780)
chain: T1 sequence with L117F
- binding [5]: binds

Now from value to molecule:

- binding [1]: binds
- binding [2]: binds
Molecule: V5-EphA2 (pcDNA3.2-V5-EphA2) (from UniProt P29317 24-976) (receptor)

- binding [1]: binds
- binding [2]: no binding
Molecule: V5-EphA2 G355R (from UniProt P29317 24-976) (receptor)

- binding [3]: binds
Molecule: ephrin-B2 (endogenous, mouse kidney) (from UniProt P52800 29-336) (ligand)

- binding [4]: binds
B1: Slc26a4 (pendrin) (endogenous, mouse tissues) (protein, UniProt Q9R155 1-780)
chain: MAARGGRSEPPQLAEYSCSYTVSRPVYSELAFQQQRERRLPERRTLRDSLARSCSCSRKRAFGVVKTLLPILDWLPKYRVKEWLLSDIISGVSTGLVGTLQGMAYALLAAVPVQFGLYSAFFPILTYFVFGTSRHISVGPFPVVSLMVGSVVLSMAPDDHFLVPSGNGSALNSTTLDTGTRDAARVLLASTLTLLVGIIQLVFGGLQIGFIVRYLADPLVGGFTTAAAFQVLVSQLKIVLNVSTKNYNGILSIIYTLIEIFQNIGDTNIADFIAGLLTIIVCMAVKELNDRFKHRIPVPIPIEVIVTIIATAISYGANLEKNYNAGIVKSIPSGFLPPVLPSVGLFSDMLAASFSIAVVAYAIAVSVGKVYATKHDYVIDGNQEFIAFGISNVFSGFFSCFVATTALSRTAVQESTGGKTQVAGLISAVIVMVAIVALGRLLEPLQKSVLAAVVIANLKGMFMQVCDVPRLWKQNKTDAVIWVFTCIMSIILGLDLGLLAGLLFALLTVVLRVQFPSWNGLGSVPSTDIYKSITHYKNLEEPEGVKILRFSSPIFYGNVDGFKKCINSTVGFDAIRVYNKRLKALRRIQKLIKKGQLRATKNGIISDIGSSNNAFEPDEDVEEPEELNIPTKEIEIQVDWNSELPVKVNVPKVPIHSLVLDCGAVSFLDVVGVRSLRMIVKEFQRIDVNVYFALLQDDVLEKMEQCGFFDDNIRKDRFFLTVHDAILHLQNQVKSREGQDSLLETVARIRDCKDPLDLMEAEMNAEELDVQDEAMRRLAS
